Data published in PubChem BioAssay AID463173 (ICCB-Longwood Screening Facility, Harvard Medical School, 2010).
Hit rate of the full screen: of about 52,000 compounds, about 4,300 (8.3%) were called active. No stated cut-off is given here; in the data, active means survival mostly below about 52% (no sharp cut-off); inactive means mostly above about 56%. This is one part of the list.

system: DeltatarO mutant; assay: S. aureus survival, RN4220 and DeltatarO strains – OD600, teichoic acid synthesis inhibitors, primary screen (AID 463173); conditions: S. aureus RN4220 wild type/DeltatarO growth, OD600, 18 h, active compounds read low, screened at 18.75 µg/mL (by protocol)

Structure (SMILES) | survival
c1ccc(CSc2n[nH]c(-c3ccncc3)n2)cc1 | inactive: 103%
Cc1c(Cl)cccc1NC(=O)c1cnc2sc(N3CCOCC3)nn2c1=O | inactive: 123%
CCN(c1ccccc1)S(=O)(=O)c1ccc(NC(=O)c2cc(=O)c3cc(C)cc(C)c3o2)cc1 | inactive: 70%
CCC(=O)N1c2ccccc2CC1C(=O)NCCc1ccccc1C (centres undefined) | inactive: 71%
COc1cccc(N2CCN(C(=O)c3ccc(Cn4c(=O)[nH]c5cc(OC)c(OC)cc5c4=O)cc3)CC2)c1 | inactive: 79%
CC(NS(=O)(=O)c1ccccc1)C(=O)NCc1ccc2c(c1)OCO2 (centres undefined) | inactive: 78%
COc1ccc(C(CNC(=O)c2oc3ccc(Cl)cc3c2C)N2CCCCC2)cc1 (centres undefined) | inactive: 106%
O=C(c1ccc2c(c1)N(Cc1ccc(Cl)cc1)C(=O)c1ccccc1S2=O)N1CCOCC1 (centres undefined) | inactive: 72%
Cc1cc(C)c2c(CC(=O)N3CCN(c4cccc(Cl)c4)CC3)coc2c1 | inactive: 61%
CCOc1ccccc1N1CC(c2nc3ccccc3n2CCOc2ccccc2)CC1=O (centres undefined) | active: 32%
CCc1cccc(NC(=O)Cn2c(=O)ccc3cc(S(=O)(=O)N4CCC(C)CC4)ccc32)c1 | inactive: 131%
CCc1ccc(CNc2ncnc3c2nc2n3CCCC2)cc1 | inactive: 89%
O=C(CSc1nc2ccccc2n1Cc1ccccc1)N1CCN(c2ccc(F)cc2)CC1 | inactive: 56%
COc1ccc(-n2cc(C(=O)NCc3ccccc3)c3ccccc3c2=O)cc1 | inactive: 61%
COc1ccc(CN2CCN(Cc3cc(=O)oc4cc(C)ccc34)CC2)c(OC)c1OC | inactive: 101%
CCCC(=O)N(c1ccc2oc3c(c2c1)CCCC3)S(=O)(=O)c1cc(C)ccc1C | active: 35%
O=C1CC(c2nc3ccccc3[nH]2)CN1c1cccc(Cl)c1 (centres undefined) | inactive: 81%
COC(=O)c1ccc(CSc2nc3c([nH]c4ccccc43)c(=O)n2-c2ccc(Cl)cc2)o1 | inactive: 112%
Nc1nnc2c(n1)[nH]c1ccccc12 | inactive: 81%
COc1cccc(CSc2nc3cc(C(=O)NC4CCCC4)ccc3c(=O)n2Cc2ccccc2)c1 | inactive: 75%
Cc1ccc(OCC(=O)OCc2cc(=O)n3nc(-c4cccs4)sc3n2)cc1C | inactive: 102%
Cc1ccc(-c2nc3n(n2)C(=O)CC(c2ccc(Cl)cc2)S3)cc1 (centres undefined) | inactive: 88%
Cc1cc(C)c(NC(=O)Cn2c(=O)n(-c3ccc(CC(=O)NCC4CCCO4)cc3)c(=O)c3ccccc32)c(C)c1 (centres undefined) | inactive: 120%
O=C(NCc1ccc(F)cc1)c1cc2n(n1)CCCN(Cc1ccc(F)cc1)C2=O | inactive: 64%
